Whole data set: some 33,000 sequences, median “E-score (-0.5 to 0.5)” near -0.054, cut for the highest 2% near 0.35. The list shows a part of the results.

For this test, the target named is T1, Stb5 (UniProt P38699).
T1 sequence: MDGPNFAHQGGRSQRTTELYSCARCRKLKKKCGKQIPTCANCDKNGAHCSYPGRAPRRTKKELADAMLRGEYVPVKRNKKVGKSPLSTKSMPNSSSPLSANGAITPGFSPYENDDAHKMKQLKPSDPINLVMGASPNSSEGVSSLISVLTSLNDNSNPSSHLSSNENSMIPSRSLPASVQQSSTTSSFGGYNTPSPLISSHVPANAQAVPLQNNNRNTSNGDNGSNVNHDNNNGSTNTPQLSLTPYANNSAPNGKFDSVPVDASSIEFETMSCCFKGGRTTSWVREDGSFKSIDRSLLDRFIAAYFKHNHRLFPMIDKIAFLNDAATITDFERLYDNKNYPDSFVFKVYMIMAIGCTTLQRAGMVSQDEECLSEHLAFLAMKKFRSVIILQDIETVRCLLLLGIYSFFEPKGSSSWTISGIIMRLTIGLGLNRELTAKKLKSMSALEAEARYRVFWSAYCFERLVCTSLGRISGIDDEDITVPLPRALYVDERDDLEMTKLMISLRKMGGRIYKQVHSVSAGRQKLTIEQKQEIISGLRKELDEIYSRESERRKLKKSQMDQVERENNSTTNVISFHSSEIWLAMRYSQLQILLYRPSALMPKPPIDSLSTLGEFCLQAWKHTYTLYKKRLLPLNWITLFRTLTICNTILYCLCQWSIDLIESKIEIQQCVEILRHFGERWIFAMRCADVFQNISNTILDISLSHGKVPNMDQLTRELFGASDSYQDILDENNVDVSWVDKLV
Kind of test: PBM E-score (8-mer binding enrichment) (E-score (-0.5 to 0.5)); higher = stronger / more preferred TF binding; most listed sequences are background and not binding sites. The settings on record: protein concentration: 200 nM; construct: GST-full length. In a few lines: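 Universal all-10-mer Agilent arrays, double-stranded by primer extension on fresh or once-stripped slides, were probed with about 100-200 nM GST-tagged yeast transcription factors made by PURExpress. Fluorescent anti-GST detected bound protein, and masliner normalised the scans. E-scores from the Universal PBM Analysis Suite were given to each ungapped eight-base word pooled with its reverse complement.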
Regarding GGCTGAGA, the “PBM E-score” value is -0.116. Consider CGTCCTCA, for which the “PBM E-score” value was -0.0976. Next, AAAAACAA: 0.151.

Turning to AGCCTTTG, the “PBM E-score” value is -0.217. As to ACAGCCGA, the “PBM E-score” value was determined as 0.0858. For AACGGAAT the value was 0.209; for CGAGCACA, -0.0834; for CGCGCTAA, 0.0608. As to GAATGTAA, the “PBM E-score” value turned out to be 0.0823. On to GCCCGGCC, for which the “PBM E-score” value came out at 0.233. For ATTCCAAC the value was -0.209. For CGTGCGTA the value was 0.00379.

In the case of GCCAACCA, the “PBM E-score” value turned out to be 0.00482. For the sequence AGATTAGG, the “PBM E-score” value is -0.0761.

Turning to AGCCGGAA, the “PBM E-score” value was determined as 0.186.

In the case of AAACATTC, the “PBM E-score” value was -0.247. Next, GGCGGATA: 0.257.

As for CGACGACC, the “PBM E-score” value came out at 0.197. Turning to AAGGTTAA, the “PBM E-score” value was -0.218. On to CGCCTTCC, for which the “PBM E-score” value was 0.0626. Next, ACGTAGCA: -0.123.

In the case of CCACATTC, the “PBM E-score” value was -0.0853.

GCAGATCC: the “PBM E-score” value was -0.0324. For AGGGGGCC the value was -0.234; for CATTAGCA, -0.0385. With AGGTGACT, the “PBM E-score” value is -0.279. Next, CTTTCCGC: 0.0536.

In the case of TGACCTAA, the “PBM E-score” value was -0.117. For GATAGACA the value was -0.354. Next, CCAGTCGG: 0.259. For ATCCTGTG the value was -0.173; for ATTAGTAC, 0.

Regarding AAGTATGG, the “PBM E-score” value was -0.13.

Consider ATGGGCGG, for which the “PBM E-score” value worked out at 0.265. Next, AATAATTA: -0.154; CTAAGATC: 0.00661; GCGTCCGA: 0.191. Next, GGTAGGTA: -0.00892; AGCGTTTC: -0.067.

As to CCCAATAG, the “PBM E-score” value is -0.275. For AGATGAGG the value was -0.159; for AGGAGTGC, -0.0148; for GAAACCTC, -0.0112. Next, ACAGAAAC: -0.122. Turning to CGTATCTA, the “PBM E-score” value is -0.0931. For CAGGTAAC, the “PBM E-score” value is -0.158. Turning to CCCTCAAC, the “PBM E-score” value is -0.125. Regarding CGATATCG, the “PBM E-score” value is 0.143.

CCATGTAG: the “PBM E-score” value was determined as 0.0296.

On to ATCTGACA, for which the “PBM E-score” value is -0.302. With AGCTCTCG, the “PBM E-score” value was -0.155. For AATGCCCT the value was -0.168; for AAGAAAGA, -0.0812; for TGATCGCA, -0.14. Regarding ACGGTCGG, the “PBM E-score” value is 0.313. For CTAGAAAC the value was -0.268; for GGTGCCGA, 0.292; for GAATATAA, -0.115. Regarding AGGAGGCC, the “PBM E-score” value was -0.207. On to CTCGGGTC, for which the “PBM E-score” value worked out at 0.0646.

Take CGGTAATA: the “PBM E-score” value was found to be 0.457. Regarding GATACTAC, the “PBM E-score” value is 0.0343. As for ATAGCTTC, the “PBM E-score” value was -0.0602. As for AGTAACCC, the “PBM E-score” value was -0.0479. For AAGCCATT the value was -0.112; for AACTATTG, -0.125; for TTACGAAA, -0.0991. For CCCAAAGC the value was -0.0121; for AGTGACAA, -0.26; for CCTCTCCG, -0.171. Consider TCACGACA, for which the “PBM E-score” value is -0.207. Turning to ACGACTCG, the “PBM E-score” value is -0.226. For AGTAGGCA the value was -0.192; for AAGACGCT, -0.221; for TATGAACA, -0.124. Next, GCGAGGCA: -0.151; AAATGGAA: -0.261. Regarding ATTTAATA, the “PBM E-score” value amounted to 0.0634. Next, GCGCTACC: 0.071; AAGAAGCA: -0.0294; TTATCAAA: -0.03. On to CGAGAAAA, for which the “PBM E-score” value is -0.00605. Next, CTAATCGC: -0.0503; AGTAATAT: 0.126. CTCAGACC: the “PBM E-score” value was -0.129. Next, GTGAGGTA: -0.158.

Source of the values: the supplement of paper PMC3334620.
